From the supplement of paper PMC10126150
Values marked as one replicate rest on one cluster of the flow cell; about a third of the high ones do not repeat.

Test system: ATP
Assay: switch fluorescence ratio, 500 uM ATP over buffer (Cy3 cluster intensity, sum of 5 cycles each) (fold (ratio)); higher = stronger signal-on switching upon ATP binding; sequences stand for … in TCGTCGGCAGCGTCAGATGTGTATAAGAGACAGTTTTTTTTTTTTTTTTTTTTTTTTT…TC
Settings: aptamer strand: ATP DNA aptamer (quencher-CACCTGGGGGAGTATTGCGGAGGAAGG + anchor), 100 nM annealed; ATP concentration: 500 uM; one replicate
How it was run: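 Imaging in selection buffer was followed by imaging after 15 min with 500 uM ATP at 22 °C, for Cy3-labelled switching-strand clusters annealed to 100 nM quencher-labelled ATP aptamer on a modified Illumina MiSeq flow-cell. Five of these buffer/ATP cycles ran, separated by NaOH stripping and re-annealing. The fluorescence ratio per cluster is summed target-cycle over summed buffer-cycle Cy3 intensity, averaged per switch-domain sequence; clusters outside 100-1000 RFU were removed.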
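Note: ATP exposure 15 min at 22 °C before imaging.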

ACCAATGCAC
switch fluorescence ratio: 1.19

TCTTGTGGTA
switch fluorescence ratio: 0.984

TAGGTGGAGG
switch fluorescence ratio: 0.977

CTACCCGCGG
switch fluorescence ratio: 1.08

TCTGTCGCGG
switch fluorescence ratio: 1.01

CTTTAAACGT
switch fluorescence ratio: 1.02

TACCAGCGAG
switch fluorescence ratio: 1.04

CTTCGGGT
switch fluorescence ratio: 1.02

GAAAATTTGG
switch fluorescence ratio: 1.01

CGTTTGAACC
switch fluorescence ratio: 1.03

TCAGGTGCGA
switch fluorescence ratio: 1.66

CTATCACGGC
switch fluorescence ratio: 1.06

AATCGGAAGG
switch fluorescence ratio: 1.04

GATGTCCCCC
switch fluorescence ratio: 1.08

CAGGCGGTCG
switch fluorescence ratio: 0.981

CGATTTCGTG
switch fluorescence ratio: 0.979

GTATTAAATT
switch fluorescence ratio: 0.987

GCTAACGATA
switch fluorescence ratio: 1.09

GGTAACAAGT
switch fluorescence ratio: 1.1

CGTTATCATG
switch fluorescence ratio: 0.974

ACTCGTGGGG
switch fluorescence ratio: 0.954

CGATTTTCAG
switch fluorescence ratio: 0.955

CGGATCGTGC
switch fluorescence ratio: 1.01

CTATAACGCT
switch fluorescence ratio: 1

AGGGTCGTTT
switch fluorescence ratio: 1

AGTTGCTTCC
switch fluorescence ratio: 1.91

ATGCTCCGGT
switch fluorescence ratio: 1.04

GACCGCACGT
switch fluorescence ratio: 1.53

CTCGTGTAAG
switch fluorescence ratio: 1.02

GCATTTTAAG
switch fluorescence ratio: 1.05

CCAGCCGGGT
switch fluorescence ratio: 1.23

TGATTCACCT
switch fluorescence ratio: 1.12

TGATATACGG
switch fluorescence ratio: 1.01

TCTGCGTAAC
switch fluorescence ratio: 1.48

ACATGTCCT
switch fluorescence ratio: 1.05

ATCCGGATCA
switch fluorescence ratio: 1.04

TTATATCGGA
switch fluorescence ratio: 0.962

TGGCTGTGGC
switch fluorescence ratio: 0.957

TGGATGAT
switch fluorescence ratio: 0.987

CCGCTGTTGT
switch fluorescence ratio: 1.42

AATAGTACCT
switch fluorescence ratio: 1.17

CAAAAAATAG
switch fluorescence ratio: 1.11

CGTATTGCCT
switch fluorescence ratio: 0.994

GAACGTTGTA
switch fluorescence ratio: 1.03

CAGGTCCATT
switch fluorescence ratio: 1

CCACGGAAGC
switch fluorescence ratio: 1.46

CCAGGGGCAT
switch fluorescence ratio: 1.5

AGGGGCTTAA
switch fluorescence ratio: 1.02

GTCTAAGTAA
switch fluorescence ratio: 1.03

AGTTAATGTG
switch fluorescence ratio: 0.945

AACTGGTGCC
switch fluorescence ratio: 1.07

TGTTATGCTA
switch fluorescence ratio: 0.994

GGTCTCCGCG
switch fluorescence ratio: 1.34

ATTCCGGCTT
switch fluorescence ratio: 0.989

AGGCGCGA
switch fluorescence ratio: 1.03

ATTTTTTG
switch fluorescence ratio: 0.954

GTTGAAACCG
switch fluorescence ratio: 1.16

TCGCAGACAG
switch fluorescence ratio: 1

AGCTGACGGA
switch fluorescence ratio: 1

TAAATGTTGG
switch fluorescence ratio: 0.958

GTATTGGGAA
switch fluorescence ratio: 1.03

AGGGGGT
switch fluorescence ratio: 1.09

TACAGATTTA
switch fluorescence ratio: 1.01

GTGGCGGCG
switch fluorescence ratio: 1.01

CAACACGTAT
switch fluorescence ratio: 1.18

AAGACCGATC
switch fluorescence ratio: 1.29

CTGGTTCAAC
switch fluorescence ratio: 0.948

ACAGTGGTGC
switch fluorescence ratio: 1

CTTCTATCGC
switch fluorescence ratio: 1.45

GAGTAGAGAG
switch fluorescence ratio: 1.06

GAAGATACGA
switch fluorescence ratio: 1.08

GGCGCAGGTC
switch fluorescence ratio: 1.06

ATGATAGAAA
switch fluorescence ratio: 0.979

GTGAGCTTAG
switch fluorescence ratio: 1.05

GGTCGTATAC
switch fluorescence ratio: 1.3

TCTCAATTAT
switch fluorescence ratio: 1.03

CTTTACGCAC
switch fluorescence ratio: 1.81

GGAGAGTAAT
switch fluorescence ratio: 0.995

ATTGCGACAT
switch fluorescence ratio: 1

CGTGCGGATA
switch fluorescence ratio: 1.05

ACGCAGATAA
switch fluorescence ratio: 1.8

AGTCTCCCGT
switch fluorescence ratio: 1

TATGACTTGT
switch fluorescence ratio: 1.02

ATCCGATGTA
switch fluorescence ratio: 1.08

CAAGTTTTA
switch fluorescence ratio: 0.976

GGACATACTT
switch fluorescence ratio: 1.42

TTCGAGAGAC
switch fluorescence ratio: 1.49

ATATAACATG
switch fluorescence ratio: 1.01

CCATGGTGGC
switch fluorescence ratio: 1.16

GTCGGAAGTA
switch fluorescence ratio: 1.01

CACGTTATT
switch fluorescence ratio: 1.12

TTTGACTCGA
switch fluorescence ratio: 1.01

GAATGCGCAG
switch fluorescence ratio: 0.996

TTCGCTAATT
switch fluorescence ratio: 1.02

ACGGAGACCT
switch fluorescence ratio: 1.18

CAATAAGGCT
switch fluorescence ratio: 0.974

GCCTATAGGG
switch fluorescence ratio: 0.989

TGAGTGTTAA
switch fluorescence ratio: 0.974

TTCCAGTCTC
switch fluorescence ratio: 0.983

GATGCCCGG
switch fluorescence ratio: 1.04

ATTGAATGAT
switch fluorescence ratio: 1.04

GCAGCGTGGC
switch fluorescence ratio: 1.07

TGAATTCGGT
switch fluorescence ratio: 0.972

GGTGACTAGA
switch fluorescence ratio: 1.03

TGACTTGTCC
switch fluorescence ratio: 1.05

TATGCGCAGG
switch fluorescence ratio: 1.06

AATCCCGTGG
switch fluorescence ratio: 0.997

TGGGGACCTG
switch fluorescence ratio: 1

AGCCGCCACA
switch fluorescence ratio: 1.06

ATTGGTCATC
switch fluorescence ratio: 1.01

AGGAGAGTAG
switch fluorescence ratio: 0.967

AGATAGAAAG
switch fluorescence ratio: 1

CGCGGGCATC
switch fluorescence ratio: 1.08

TGTGCATTGG
switch fluorescence ratio: 1.01

CGGAGAGCGG
switch fluorescence ratio: 0.924

TCACCCCACT
switch fluorescence ratio: 1.36

TAACTCGTCT
switch fluorescence ratio: 1.02

ACGGAGACTC
switch fluorescence ratio: 1.17

CTGCGGTCT
switch fluorescence ratio: 0.972

GGAAATTAAA
switch fluorescence ratio: 0.996

ATCGTTAAGT
switch fluorescence ratio: 0.97

GGCGGTCTAT
switch fluorescence ratio: 1

TACTCTGTGC
switch fluorescence ratio: 1.2

GGACTGGGGG
switch fluorescence ratio: 0.984

TTCAATAACG
switch fluorescence ratio: 1

TTAGGCGATG
switch fluorescence ratio: 1.02

TGTTCAGTAG
switch fluorescence ratio: 0.985

GGCGGCGTTG
switch fluorescence ratio: 1

ATTCTGATCA
switch fluorescence ratio: 1.01

GCCGCATGCA
switch fluorescence ratio: 1.26

CTAGTTCATC
switch fluorescence ratio: 0.984

GGCGGTAGGC
switch fluorescence ratio: 1.01

TCTTCTAGA
switch fluorescence ratio: 0.949

AAGGCATTGT
switch fluorescence ratio: 0.962

AGATAAA
switch fluorescence ratio: 0.988

AGTTCACCGG
switch fluorescence ratio: 1.02

GCTGTGGGGT
switch fluorescence ratio: 1.03

GCTGAGAGGT
switch fluorescence ratio: 1.05

TTTAGATCCC
switch fluorescence ratio: 0.977

CAGGAGATGC
switch fluorescence ratio: 1.08

TGTATACGGG
switch fluorescence ratio: 1.07

GGCGGACAAA
switch fluorescence ratio: 1.07

ACCGGCGATT
switch fluorescence ratio: 1.04

ACGTTTGT
switch fluorescence ratio: 0.968

CATGAATGT
switch fluorescence ratio: 1.03

GTTTATGTAT
switch fluorescence ratio: 0.992

CGTCCCTAAC
switch fluorescence ratio: 2.4

AACCTTAAGG
switch fluorescence ratio: 1.03

CTCTCATGTT
switch fluorescence ratio: 0.994

CCTTCGATTA
switch fluorescence ratio: 2.77

GGTTGCACCT
switch fluorescence ratio: 0.998

GTGGGTACTT
switch fluorescence ratio: 1.03

GTTCAACGTG
switch fluorescence ratio: 0.941

ACCGTCCGAA
switch fluorescence ratio: 1.35
